# Reference: PubChem BioAssay (NCATS)
# Where “and” joins values, the source holds several entries; their conditions need not be identical. Equal entries are not always repeated. This list was built around the results that the source calls inconclusive (neither active nor inactive); the mix of calls is not that of the screen. For some of these results: Potencies of inconclusive entries are left out as doubtful fits. Calls of active or inactive are those of the source. Unless noted, calls come from the whole dose curve; as a rule, active = well fitted curve in the direction sought with a large enough effect; inconclusive = small, poorly fitted or top-dose-only effect, or another doubt; inactive = no such curve, though single readings can be large; an effect the other way counts as inactive or inconclusive.
# Key:
# [1] = molecular target: Aldehyde dehydrogenase, mitochondrial (Homo sapiens) (UniProt P05091); experiment: qHTS for Inhibitors of the Aldehyde Dehydrogenase Family (ALDH2) Primary screen (AID 2061308); note: nearly all actives have a fitted effect of over 55% in size
# [2] = molecular target: Retinaldehyde dehydrogenase 3 (Homo sapiens) (UniProt P47895); experiment: qHTS for Inhibitors of the Aldehyde Dehydrogenase Family (ALDH1A3) Primary screen (AID 2061315)
# [3] = BET inhibitor-based combinations targeting novel dependencies in MECOM-rearranged (r) AML: SET-2 cell line (AID 2202231); details: SET-2 AML cells viability, CellTiter-Glo luminescence, 48 h; viability: hits give low values, concentration not given here; note: nearly all actives have a fitted effect of over 35% in size
# Outline: (§1)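 Readout: CellTiter-Glo luminescence. Exposure: 48 h, 11 concentrations, 500 cells/well. Metric: AUC and within-line Z-AUC after DMSO/empty-well normalization.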
# [4] = BET inhibitor-based combinations targeting novel dependencies in MECOM-rearranged (r) AML: OCI-AML3 cell line (AID 2202232); details: Potency: OCI-AML3 viability; note: nearly all actives have a fitted effect of over 35% in size
# Outline: as §1
# [5] = BET inhibitor-based combinations targeting novel dependencies in MECOM-rearranged (r) AML: MV-4-11 cell line (AID 2202233); details: MV-4-11 AML viability, CellTiter-Glo luminescence, 48 h; viability, % of control: at 46 µM (top of the series); note: nearly all actives have a fitted effect of over 45% in size
# Outline: (§2)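 Seeding density was 500 cells/well, and drug exposure lasted 48 hr under standard culture conditions. Read-out used CellTiter-Glo reagent with a 15 min room-temperature incubation before luminescence measurement; AUC and Z-AUC summarize the normalized responses.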
# [6] = BET inhibitor-based combinations targeting novel dependencies in MECOM-rearranged (r) AML: AML-194 cell line (AID 2202237; note: nearly all actives have a fitted effect of over 40% in size)
# Outline: as §1
# [7] = BET inhibitor-based combinations targeting novel dependencies in MECOM-rearranged (r) AML: UCSD-AML1 cell line (AID 2202235); note: nearly all actives have a fitted effect of over 40% in size
# Outline: as §2
# [8] = BET inhibitor-based combinations targeting novel dependencies in MECOM-rearranged (r) AML: AML-191 cell line (AID 2202236; note: nearly all actives have a fitted effect of over 35% in size)
# Outline: as §1
# [9] = molecular target: Aldehyde dehydrogenase, mitochondrial (Homo sapiens) (UniProt P05091); experiment: qHTS for Inhibitors of the Aldehyde Dehydrogenase Family (ALDH2) Confirmatory screens (AID 2061303; active = well fitted inhibition curve with a large enough effect; inconclusive = small, poorly fitted or top-dose-only effect; inactive = no such curve, though single readings can be large or run the other way; title and protocol of this record describe different tests; note: nearly all actives have a fitted effect of over 45% in size)
# [10] = molecular target: Retinaldehyde dehydrogenase 3 (Homo sapiens) (UniProt P47895); experiment: qHTS for Inhibitors of the Aldehyde Dehydrogenase Family (ALDH1A3) Confirmatory screens (AID 2061311); note: nearly all actives have a fitted effect of over 60% in size
# [11] = molecular target: Retinal dehydrogenase 2 (Homo sapiens) (UniProt O94788); experiment: qHTS for Inhibitors of the Aldehyde Dehydrogenase Family (ALDH1A2) Confirmation screens (AID 2061314); note: nearly all actives have a fitted effect of over 65% in size
# [12] = molecular target: Aldehyde dehydrogenase 1A1 (Homo sapiens) (UniProt P00352); experiment: qHTS for Inhibitors of the Aldehyde Dehydrogenase Family (ALDH1A1) Confirmatory screens (AID 2061316); note: nearly all actives have a fitted effect of over 65% in size
# [13] = molecular target: Aldehyde dehydrogenase, mitochondrial (Homo sapiens) (UniProt P05091); experiment: qHTS for Inhibitors of the Aldehyde Dehydrogenase Family (ALDH2) Validation screens (AID 2061302; active = well fitted inhibition curve with a large enough effect; inconclusive = small, poorly fitted or top-dose-only effect; title and protocol of this record describe different tests)
# [14] = qHTS for Inhibitors of the Aldehyde Dehydrogenase Family (ALDH1A2, ALDH1A3, ALDH2, ALDH3A1) (AID 2061307); note: nearly all actives have a fitted effect of over 50% in size; for Potency: test system not described further here
# [15] = molecular target: Retinaldehyde dehydrogenase 3 (Homo sapiens) (UniProt P47895); experiment: qHTS for Inhibitors of the Aldehyde Dehydrogenase Family (ALDH1A3) Validation screen (AID 2061312); note: nearly all actives have a fitted effect of over 45% in size
# [16] = molecular target: Cellular tumor antigen p53 (Homo sapiens) (UniProt P04637); experiment: Primary qHTS for small molecule compounds that upregulate eGFP-tagged delta133p53alpha (in N-terminal) cells. (AID 2060322); details: NCI-H358 eGFP-delta133p53alpha fluorescence, 24 h; activation: hits give high values;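 note: cells pre-induced with doxycycline then dosed without doxycycline; nearly all actives have a fitted effect of over 75% in size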;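 for activation: 0% = DMSO vehicle and 100% = reference activator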
# Chain of UniProt P04637 (P04637 whole entry, looked up): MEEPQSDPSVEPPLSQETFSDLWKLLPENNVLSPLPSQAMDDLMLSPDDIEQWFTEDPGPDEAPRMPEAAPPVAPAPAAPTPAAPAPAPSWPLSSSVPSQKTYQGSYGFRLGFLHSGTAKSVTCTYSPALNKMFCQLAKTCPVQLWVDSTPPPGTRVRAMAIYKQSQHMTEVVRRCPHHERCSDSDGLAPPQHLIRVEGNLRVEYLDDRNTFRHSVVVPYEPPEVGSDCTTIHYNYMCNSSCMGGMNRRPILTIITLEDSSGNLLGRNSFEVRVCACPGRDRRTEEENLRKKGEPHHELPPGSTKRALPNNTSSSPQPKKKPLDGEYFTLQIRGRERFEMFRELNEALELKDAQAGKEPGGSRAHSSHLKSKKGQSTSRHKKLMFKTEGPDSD
# Outline: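 NCI-H358 cells pre-induced 24 h with 10 ng/ml doxycycline for eGFP-delta133p53alpha, plated dox-free and exposed 24 h at 37C to titrated compounds. Fixed, Hoechst-stained; gated GFP peak intensity by laser scanning cytometry, normalized to DMSO (0%) and 57.5 uM 5-azacytidine (100%).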
# [17] = BET inhibitor-based combinations targeting novel dependencies in MECOM-rearranged (r) AML: HNT-34 cell line (AID 2202234); note: nearly all actives have a fitted effect of over 35% in size
# Outline: as §2
# Potency is the fitted concentration of half-maximal effect; tags give direction and shape of the fitted curve.
compound,measurement,setting,value
CN1CN(c2ccccc2)C2(CCN(CCCC(=O)c3ccc(F)cc3)CC2)C1=O,Potency,[1],"inconclusive [inhibitor, partial curve]"
COC[C@H]1OC(=O)c2coc3c2[C@@]1(C)C1=C(C3=O)C2CCC(=O)[C@@]2(C)C[C@H]1OC(C)=O (some centres undefined),Potency,[1],"inconclusive [inhibitor, partial curve]"
same,Potency,[2],"inconclusive [inhibitor, partial curve]"
same,Potency,[3],active: 18.6 µM
same,Potency,[4],active: 7.42 µM
same,Potency,[5],active: 5.25 µM
same,Potency,[6],"inconclusive [inhibitor, partial curve]"
COc1cc(O)c2c(c1)CCC[C@@H](O)[C@H](O)C(=O)/C=C\C[C@H](C)OC2=O,Potency,[2],inactive
COc1ccc2c(c[n+](C)c3c4cc5c(cc4ccc23)OCO5)c1OC,Potency,[7],"inconclusive [inhibitor, full curve, poor fit]"
same,Potency,[8],"inconclusive [inhibitor, full curve, poor fit]"
CCC(C)C1NC(=O)C(C(C)=O)=C1O (centres undefined),Potency,[9],inactive
same,Potency,[10],"inconclusive [inhibitor, partial curve, poor fit]"
same,Potency,[11],"inconclusive [inhibitor, single point]"
same,Potency,[12],"inconclusive [inhibitor, single point]"
COC1=C[C@@H]2[C@@H]3Cc4ccc(OC)c(O)c4[C@]2(CCN3C)CC1=O,Potency,[9],"inconclusive [inhibitor, partial curve, poor fit]"
same,Potency,[10],inactive
same,Potency,[12],inactive
CN1CCN(c2ccc([N+](=O)[O-])c3no[n+]([O-])c23)CC1,Potency,[3],"inconclusive [inhibitor, single point]"
same,Potency,[7],"inconclusive [inhibitor, single point]"
same,Potency,[8],"inconclusive [inhibitor, partial curve]"
CCOc1ccccc1-n1c(C(C)N2CCN(C(=O)COc3ccc(Cl)cc3)CC2)nc2ccccc2c1=O (centres undefined),Potency,[7],"inconclusive [inhibitor, partial curve]"
COC(=O)[C@@H](N)CCCN=C(N)N[N+](=O)[O-],Potency,[6],inactive
O=[N+]([O-])c1ccc2nc(N3CCNCC3)ccc2c1,Potency,[13],"inconclusive [inhibitor, partial curve]"
same,Potency,[9],active: 398 nM and active: 2.51 µM
same,Potency,[14],active: 14.1 µM and active: 12.6 µM
same,Potency,[15],"inconclusive [inhibitor, full curve, poor fit]"
same,Potency,[12],active: 15.9 µM
N[C@@H]1C[C@H]1c1ccccc1,Potency,[16],"inconclusive [activator, partial curve, poor fit]"
same,Potency,[5],"inconclusive [inhibitor, full curve, poor fit]"
same,Potency,[17],"inconclusive [inhibitor, partial curve, poor fit]"
same,Potency,[7],"inconclusive [inhibitor, single point]"
same,Potency,[8],"inconclusive [inhibitor, partial curve, poor fit]"
same,Potency,[6],inactive
O=C1C=CC(=O)C=C1,Potency,[13],inactive
C#CC1(O)CCC2C3CCC4=CC(=O)CCC4(C)C3CCC21C (centres undefined),activation,[16],inactive: 2.51%
same,Potency,[7],"inconclusive [inhibitor, single point]"
CN(N=O)c1ccc(O)c(O)c1,Potency,[13],"inconclusive [inhibitor, partial curve]"
same,Potency,[9],"inconclusive [inhibitor, partial curve]"
same,Potency,[14],"inconclusive [inhibitor, partial curve]"
same,Potency,[15],"inconclusive [inhibitor, partial curve]"
same,Potency,[11],"inconclusive [inhibitor, partial curve]"
same,Potency,[12],"inconclusive [inhibitor, partial curve]"
CN1CCC[C@@H]1Cc1c[nH]c2ccc(Nc3ncccc3[N+](=O)[O-])cc12,Potency,[13],inactive
O=[N+]([O-])c1cc(O)c(O)c([N+](=O)[O-])c1,Potency,[13],"inconclusive [inhibitor, partial curve]"
same,Potency,[9],"inconclusive [inhibitor, partial curve]"
same,Potency,[14],inactive
same,Potency,[15],"inconclusive [inhibitor, full curve]"
same,Potency,[11],"inconclusive [inhibitor, partial curve]"
same,Potency,[12],"inconclusive [inhibitor, partial curve]"
